# Reference: PubChem BioAssay (NCATS)
# Values joined by “and” are separate entries in the source; they are usually repeats but may differ in a detail not shown here. Equal entries are not always repeated. Inconclusive results, whose numbers are uncertain, are shown with a selection of clear calls. Where a call stands in place of a potency, no number is given. For some assays here: A potency beside an inconclusive call is a rough fit, not a confirmed value. Active and inactive are the calls of the source. Unless noted, the call rests on the fitted dose curve; in most records, active means well fitted curve in the direction sought with a large enough effect; inconclusive means small, poorly fitted or top-dose-only effect, or another doubt; inactive means no such curve, though single readings can be large; an effect the other way counts as inactive or inconclusive.
# Tests used:
# [1] = NFAT Signaling Pathway (AID 444; active means well fitted curve in either direction with a large enough effect, not every such curve was filed as active; inconclusive means small, poorly fitted or top-dose-only effect, or another doubt;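 further: carbachol stimulus at about its EC50 of 1 µM final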); details: Jurkat NFAT-bla M1, carbachol, beta-lactamase ratio, 5 h; at 17.2 µM (top of the series)
# Summary of the method: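 Jurkat cells carrying an NFAT-driven β-lactamase reporter and co-transfected muscarinic M1 receptor were treated with compound plus carbachol (1 uM final, an EC50 level) for 5 h at 37 °C. CCF4 loading followed for 1 h at RT; 460/530 nm ratio gave %activity.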
# [2] = P-glycoprotein substrates identified in KB-8-5-11 adenocarcinoma cell line, qHTS therapeutic library screen (AID 1346987); details: KB-8-5-11 (P-gp overexpressing) viability, CellTiter-Glo, 72 h; activity change, negative = cytotoxicity: at 44.5 µM (top of the series); series mostly up to 44.5 µM; further: nearly all actives have a fitted effect of over 65% in size; further: potency means the concentration at half of the fitted maximal effect
# Summary of the method: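 Human cervical adenocarcinoma KB-8-5-11 cells, selected in colchicine to over-express P-gp and assayed without it, were exposed for 72 h to titrated compounds. An ATP-based luminescent viability signal gave AC50.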
# [3] = qHTS of pediatric cancer cell lines to identify multiple opportunities for drug repurposing: Primary screen for Rh18 cells (AID 1347102); details: Rh18 rhabdomyosarcoma viability, CellTiter-Glo luminescence, 48 h; series mostly up to 46 µM; further: nearly all actives have a fitted effect of over 65% in size
# Summary of the method: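 Cells (500-1,000/well) in growth media were settled 5 h at 37 degrees C, then given compounds for 48 h. Viability was read as CellTiter-Glo luminescence. Primary runs used MIPE at 11 points (0.78 nM-46 µM) and NPC at 8 points (0.59 nM-46 µM); follow-ups used 11 points.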
# [4] = qHTS of pediatric cancer cell lines to identify multiple opportunities for drug repurposing: Primary screen for MG 63 (6-TG R) cells (AID 1347105); details: MG 63 (6-TG R) viability, CellTiter-Glo, 48 h; activity change, negative = cytotoxic: at 46 µM (top of the series); further: nearly all actives have a fitted effect of over 50% in size; further: potency means the concentration at half of the fitted maximal effect
# Summary of the method: (§1)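 Primary screen of approved and investigational compounds on cells in growth media at 37 degrees C, 5% CO2. MIPE set at 11-point and NPC set at 8-point dilutions; viability scored by ATP-based luminescence at 48 hours.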
# [5] = system: Zika virus NS2B-NS3 protease; test: Primary screen GU AMC qHTS for Zika virus inhibitors (AID 1347154); details: Zika NS2B-NS3 unlinked protease, AMC fluorogenic substrate; series mostly up to 54.1 µM; further: nearly all actives have a fitted effect of over 70% in size; further: potency means the concentration at half of the fitted maximal effect
# Summary of the method: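 Unlinked Zika NS2B hydrophilic domain/NS3 protease domain noncovalent complex (25 nM final) in 10 mM Tris-HCl pH 8.0, 0.01% Tween 20, with AMC peptide substrate. Fluorescence (ex 340, em 450 nm) change over 15 min, room temperature; percent inhibition fitted to 4-parameter Hill equation.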
# [6] = target: Cytochrome P450 3A4 (Homo sapiens) (UniProt P08684); test: Cytochrome P450 family 3 subfamily A member 4 (CYP3A4) small molecule antagonists: luciferase qHTS assay (AID 1645841; active means well fitted curve in the direction sought with a large enough effect in the repeat runs; inconclusive means weak or mixed curves; inactive means no such curve, though single readings can be large; an effect the other way counts as inactive or inconclusive; further: nearly all actives have a fitted effect of over 45% in size; further: potency means the concentration at half of the fitted maximal effect); details: P450-Glo CYP3A4 enzyme assay, luciferin luminescence; series mostly up to 57.4 µM
# Summary of the method: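 P450-Glo CYP3A4 enzyme with proluciferin substrate was preincubated with DMSO-dissolved compounds for 10 min at room temperature. NADPH regeneration solution started a 1 h reaction. Detection reagent stopped it, and luminescence was read after 20 min.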
# [7] = system: CAOV3; test: Primary qHTS to identify gynecologic anti-cancer compounds using libraries of approved drugs and bioactive compounds (AID 1345084); details: Gynecologic cancer cell panel viability, ATPlite luminescence, 48 h; series mostly up to 57.5 µM; further: nearly all actives have a fitted effect of over 55% in size; further: potency means the concentration at half of the fitted maximal effect
# Summary of the method: (§2)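 Cell viability after 48 h drug treatment, ATPlite luminescence readout; five doses.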
# [8] = system: PA-1; test: as above; details: Gynecologic cancer cell panel viability, ATPlite luminescence, 48 h; series mostly up to 57.5 µM
# Summary of the method: as §2
# [9] = qHTS of pediatric cancer cell lines to identify multiple opportunities for drug repurposing: Primary screen for DAOY cells (AID 1347090); details: DAOY medulloblastoma viability, CellTiter-Glo luminescence, 48 h; series mostly up to 46 µM; further: nearly all actives have a fitted effect of over 55% in size; further: potency means the concentration at half of the fitted maximal effect
# Summary of the method: (§3)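 Eight- or eleven-point concentration series, 48 h treatment at 37 degrees C in growth media; readout CellTiter-Glo luminescence. Potency and efficacy were taken from the concentration-response curves.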
# [10] = system: OV90; test: Primary qHTS to identify gynecologic anti-cancer compounds using libraries of approved drugs and bioactive compounds (AID 1345084); details: Gynecologic cancer cell panel viability, ATPlite luminescence, 48 h; series mostly up to 57.5 µM; further: nearly all actives have a fitted effect of over 55% in size; further: potency means the concentration at half of the fitted maximal effect
# Summary of the method: as §2
# [11] = qHTS of pediatric cancer cell lines to identify multiple opportunities for drug repurposing: Primary screen for BT-37 cells (AID 1347094); details: BT-37 viability, CellTiter-Glo luminescence, 48 h; series mostly up to 57.3 µM
# Summary of the method: as §1
# [12] = system: Hek293T; test: Primary qHTS to identify gynecologic anti-cancer compounds using libraries of approved drugs and bioactive compounds (AID 1345084); details: Gynecologic cancer cell panel viability, ATPlite luminescence, 48 h, control line for the selectivity index; series mostly up to 57.5 µM; further: nearly all actives have a fitted effect of over 55% in size; further: potency means the concentration at half of the fitted maximal effect
# Summary of the method: as §2
# [13] = qHTS of pediatric cancer cell lines to identify multiple opportunities for drug repurposing: Primary screen for SJ-GBM2 cells (AID 1347091); details: SJ-GBM2 viability, CellTiter-Glo luminescence, 48 h; series mostly up to 46 µM
# Summary of the method: as §3
# [14] = system: CP260; test: qHTS profiling for inhibitors of Plasmodium falciparum proliferation (AID 504749); further: nearly all actives have a fitted effect of over 60% in size; further: potency means the concentration at half of the fitted maximal effect; details: P. falciparum in erythrocytes, SYBR Green DNA, 72 h; series mostly up to 28.7 µM
# Summary of the method: (§4)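 Fluorescence of SYBR Green-bound parasite DNA, read at 485/535 nm, served as the growth measure. Infected erythrocytes were cultured with compound 72 h; artemisinin (0.29 uM) and DMSO wells defined the normalization range.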
# [15] = system: Tov-21-G; test: Primary qHTS to identify gynecologic anti-cancer compounds using libraries of approved drugs and bioactive compounds (AID 1345084); details: Gynecologic cancer cell panel viability, ATPlite luminescence, 48 h; series mostly up to 57.5 µM; further: nearly all actives have a fitted effect of over 55% in size; further: potency means the concentration at half of the fitted maximal effect
# Summary of the method: as §2
# [16] = system: ICS; test: qHTS profiling for inhibitors of Plasmodium falciparum proliferation (AID 504749); further: nearly all actives have a fitted effect of over 60% in size; further: potency means the concentration at half of the fitted maximal effect; details: P. falciparum in erythrocytes, SYBR Green DNA, 72 h; series mostly up to 28.7 µM
# Summary of the method: as §4
# [17] = system: W2; test: as above; details: P. falciparum in erythrocytes, SYBR Green DNA, 72 h; activity, negative = inhibition: at 28.7 µM (top of the series)
# Summary of the method: as §4
# [18] = qHTS of pediatric cancer cell lines to identify multiple opportunities for drug repurposing: Primary screen for NB1643 cells (AID 1347099); details: NB1643 neuroblastoma viability, CellTiter-Glo luminescence, 48 h; activity change, negative = cytotoxic: at 46 µM (top of the series); further: nearly all actives have a fitted effect of over 50% in size; further: potency means the concentration at half of the fitted maximal effect
# Summary of the method: as §1
# [19] = qHTS of pediatric cancer cell lines to identify multiple opportunities for drug repurposing: Primary screen for Rh41 cells (AID 1347108); details: Rh41 rhabdomyosarcoma viability, CellTiter-Glo luminescence, 48 h; series mostly up to 46 µM; further: nearly all actives have a fitted effect of over 70% in size; further: potency means the concentration at half of the fitted maximal effect;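 on activity change, negative = cytotoxic: luminescence drop marks cytotoxic hits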
# Summary of the method: as §1
# Tags describe the fitted curve by direction and shape.
# Sequence of UniProt P08684 (P08684 whole entry, looked up): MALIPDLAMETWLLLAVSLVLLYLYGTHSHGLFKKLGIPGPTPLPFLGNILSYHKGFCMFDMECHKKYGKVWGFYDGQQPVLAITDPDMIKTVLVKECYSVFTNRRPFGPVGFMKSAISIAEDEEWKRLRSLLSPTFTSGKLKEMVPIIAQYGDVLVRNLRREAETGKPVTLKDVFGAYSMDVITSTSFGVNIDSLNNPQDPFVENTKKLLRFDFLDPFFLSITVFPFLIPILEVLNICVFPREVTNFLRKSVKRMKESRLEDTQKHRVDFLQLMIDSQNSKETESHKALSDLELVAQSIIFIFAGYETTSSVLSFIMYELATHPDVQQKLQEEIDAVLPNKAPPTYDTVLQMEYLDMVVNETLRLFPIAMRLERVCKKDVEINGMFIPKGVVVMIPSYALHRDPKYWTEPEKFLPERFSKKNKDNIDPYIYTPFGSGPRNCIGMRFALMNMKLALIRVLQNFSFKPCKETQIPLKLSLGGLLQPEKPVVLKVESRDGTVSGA
compound,measurement,setting,value
CC(=O)OCC[N+](C)(C)C,"activity change, negative = inhibition",[1],active: 122% [activator]
same,Potency,[2],inactive
same,Potency,[3],inactive
same,Potency,[4],inactive
same,Potency,[5],inactive
same,Potency,[6],"inconclusive: 9.77 µM [falling, partial curve]"
same,Potency,[7],inactive
CC(=O)/C=C/C=C1/C2CCC(C2)C1(C)C (stereo not drawn),Potency,[8],"inconclusive: 1.58 µM [rising, full curve, poor fit]"
O=C(CCCCCCCCC#CI)Oc1ccccc1,Potency,[9],inactive
same,Potency,[10],inactive
CC(=O)OC(C)C[N+](C)(C)C (stereo not drawn),"activity change, negative = inhibition",[1],inconclusive: 166% [activator]
same,Potency,[11],inactive
same,Potency,[4],"inconclusive: 1.68 µM [cytotoxic, full curve, poor fit]"
same,Potency,[5],inactive
same,Potency,[6],"inconclusive: 7.76 µM [falling, full curve]"
CCC(=O)O[C@H]1[C@H](O[C@@H]2[C@@H](C)[C@H](O[C@H]3C[C@@](C)(OC)[C@@H](O)[C@H](C)O3)[C@@H](C)C(=O)O[C@H](CC)[C@@](C)(O)[C@H](O)[C@@H](C)C(=O)[C@H](C)C[C@@]2(C)O)O[C@H](C)C[C@@H]1N(C)C,Potency,[2],"inconclusive: 29.1 µM [inhibitor, single point]"
same,Potency,[3],inactive
same,Potency,[6],active: 18.2 µM
same,Potency,[12],"inconclusive: 0.631 µM [rising, partial curve, poor fit]"
CN1CC(=O)NC1=N,Potency,[8],"inconclusive: 35.5 µM [rising, single point]"
C[C@@H](c1ncncc1F)C(O)(Cn1cncn1)c1ccc(F)cc1F (stereo partly drawn),Potency,[3],inactive
same,Potency,[10],"inconclusive: 39.8 µM [cytotoxic, partial curve, poor fit]"
O=C1NCC2(CCN(CCc3ccccc3)CC2)O1,Potency,[13],inactive
same,Potency,[6],inactive
same,Potency,[8],inactive
same,Potency,[14],"inconclusive: 11.2 µM [inhibitor, single point]"
CC1=C(CC(=O)O)c2cc(F)ccc2/C1=C\c1ccc(S(C)(=O)=O)cc1,Potency,[15],inactive
CN(C)CCN(Cc1ccccc1)c1ccccn1,"activity change, negative = inhibition",[1],inconclusive: -65.4% [inhibitor]
same,Potency,[3],inactive
same,Potency,[12],"inconclusive: 28.2 µM [cytotoxic, partial curve, poor fit]"
same,Potency,[14],"inconclusive: 8.91 µM [inhibitor, partial curve, poor fit]"
same,Potency,[16],"inconclusive: 12.6 µM [inhibitor, single point]"
same,Potency,[17],"inconclusive: 8.49 µM [inhibitor, partial curve, poor fit]"
CN=C(N)NC(=O)Nc1c(C)cccc1C,Potency,[10],inactive
CC(C)(Oc1ccc(Cl)cc1)C(=O)OCCCOC(=O)C(C)(C)Oc1ccc(Cl)cc1,Potency,[18],inactive
same,Potency,[10],inactive
Nc1c(I)cc(I)c(C(=O)N(CCC(=O)O)c2ccccc2)c1I,Potency,[4],inactive
CN1[C@@H]2CCC[C@@H]1CC(NC(=O)c1nn(C)c3ccccc13)C2 (stereo partly drawn),Potency,[13],inactive
same,Potency,[4],inactive
O=C(O)c1ccccc1Nc1cc(Cl)ccc1C(=O)O,Potency,[9],"inconclusive: 11.6 µM [cytotoxic, single point]"
same,Potency,[18],"inconclusive: 3.66 µM [cytotoxic, partial curve, poor fit]"
same,Potency,[12],inactive
same,Potency,[10],"inconclusive: 7.08 µM [cytotoxic, partial curve, poor fit]"
same,Potency,[8],inactive
same,Potency,[15],inactive
CCCCCCCC(=O)OCC(O)CO (stereo not drawn),Potency,[9],inactive
same,Potency,[11],inactive
same,Potency,[10],active: 3.55 µM
same,Potency,[8],inactive
same,Potency,[16],inactive
same,Potency,[17],inactive
O=C1Cc2cc(Cl)ccc2N1,Potency,[3],inactive
CCCCOC(=O)CCCCCCCCC(=O)OCCCC,Potency,[19],inactive
same,Potency,[5],inactive
same,Potency,[15],inactive
Cc1cc(-n2nc3ccc(Cl)cc3n2)c(O)c(C(C)(C)C)c1,Potency,[2],inactive
same,Potency,[18],inactive
same,Potency,[19],inactive
same,Potency,[10],inactive
O=C(NCC(O)CO)c1c(I)c(C(=O)NCC(O)CO)c(I)c(N(CCO)C(=O)CO)c1I (stereo not drawn),Potency,[4],inactive
NC(=O)NC1NC(=O)NC1=O (stereo not drawn),Potency,[9],inactive
same,Potency,[11],inactive
same,Potency,[4],inactive
same,Potency,[7],inactive
c1ccc2c(CC3=NCCN3)cccc2c1,"activity change, negative = inhibition",[1],inconclusive: -76.2% [inhibitor]
same,Potency,[6],inactive
same,Potency,[15],inactive
COc1ccc(CCC(=O)c2c(O)cc(O[C@@H]3O[C@H](CO)[C@@H](O)[C@H](O)[C@@H]3O[C@@H]3O[C@@H](C)[C@H](O)[C@@H](O)[C@@H]3O)cc2O)cc1O,Potency,[9],"inconclusive: 7.43 µM [cytotoxic, full curve]"
same,Potency,[13],inactive
same,Potency,[4],inactive
same,Potency,[19],"inconclusive: 23.5 µM [cytotoxic, single point]"
COc1ccc2c(c1)CCCC2=O,Potency,[4],inactive
C1N2CN3CN1CN(C2)C3,Potency,[9],inactive
same,Potency,[5],inactive
N[C@@H](Cc1cc(I)c(O)c(I)c1)C(=O)O,Potency,[3],inactive
same,Potency,[5],"inconclusive: 37.7 µM [inhibitor, single point] and inconclusive: 28.7 µM [inhibitor, partial curve]"
same,Potency,[8],inactive
COC(=O)c1cc(S(N)(=O)=O)ccc1OC,Potency,[11],inactive
same,Potency,[4],inactive
same,Potency,[5],inactive
same,Potency,[15],inactive
Cc1cccc(C)c1NC(=O)c1cc(S(N)(=O)=O)c(Cl)cc1O,Potency,[18],inactive
O=C1O[C@H](CO)[C@@H](O)[C@H](O)[C@H]1O,Potency,[13],inactive
